Experimental data as given in the supplement of paper PMC11417369.
Some of the results follow.

The sequences below were run on PfSIP2 AP2 domain 1 (GST-tagged) (assay: gcPBM binding intensity (ln(normalized median fluorescence intensity)); higher = stronger DNA binding).
Summary of the method: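 Binding intensity is defined as the maximum Masliner-normalised natural-log median intensity across replicate spots for either probe orientation. It was measured on an Agilent 4 × 180k array of primer-extended double-stranded 36-bp intergenic genomic probes and negative controls, to which GST-tagged P. falciparum DNA-binding domains made in E. coli were applied for 1 h in 1× PBS with 1% milk, 0.2 mg/ml BSA, 0.5% salmon testes DNA and 0.03% Triton X-100. Detection was by Alexa488 anti-GST antibody and scanning at 488 nm.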

| Sequence | gcPBM binding intensity (ln) |
| --- | --- |
| ATTTTTTTTTTTATTTTCTTTGAGATTATCTTAATT [CACACA_negctrl_site1209] | 6.75 |
| TATATATATACATAATGTACATTTTATAAATTTACA [XGTACX_site5283] | 8.01 |
| ACTACCTATATTTAAGCATGCAAAAAATAAAAATAT [TGCATGCA_site238] | 7.47 |
| ATAAATTGTTCTTTTTGTGTAAACAGAATATTAAAA [CACACA_negctrl_site1022] | 6.98 |
| ATACAACATATATATACACACATATAATAATAATAA [CACACA_site3367] | 7.32 |
| AAACCAATAAAAAACTGTACAAAAATTATATGAGAT [XGTACX_site1269] | 7.02 |
| GAATAAAAAATATATGTGCACATATAAACTTAAAAT [GTGCAC_site9554] | 8.41 |
| TAATATAAAGGAAAAGAAAAGAAAAGAATATACAAT [CACACA_negctrl_site1369] | 6.69 |
| AAAAAAAAAAAAAAAATACACACGTGAATGTATTGT [CACACA_site1320] | 7.53 |
| AAATAACACATATATACACACATATAAATATAATAT [CACACA_site2692] | 7.08 |
| AAAAAACTTATAATCACACATATGATTAAATATTAA [CACACA_site4956] | 6.74 |
| ATAGGACCTATGTGCCCATGGGTACATTAAAAAAAA [CACACA_negctrl_site1465] | 6.83 |
| TTGAATGTAGTTAAATGTACATGTAATATATAAAAA [XGTACX_site1250] | 7.27 |
| AATTATTTTTTGTATGAACACACAACTTAATTATGA [CACACA_site8774] | 6.95 |
| TTTGTTTTAAATCGAAGTACACATAATTATATTTTA [XGTACX_site1541] | 7.2 |
| TTTTTACGTAAACAAAATAATTATATAATATTATTT [CACACA_negctrl_site1769] | 6.86 |
| CGTAAATTTTTTAAAAGTACAAAAAGATACGAGAAA [XGTACX_site8722] | 7.11 |
| TAAACAAATAAATAAACACACAATATATGTATATAT [CACACA_site3803] | 6.87 |
| ATATTTATATTTGTATGTACTTAAGTTTGTATGTAT [XGTACX_site3608] | 7.4 |
| TTTTTAATTCAAAAAATAATATATTATATTTCAAAT [CACACA_negctrl_site737] | 6.77 |
| ATATATTAGGGCAAATTTTCTGACATTACATCAGTC [CACACA_negctrl_site1166] | 6.92 |
| TATTTTTCTTTTTTCTGTACTCACACAAATAGAAGG [XGTACX_site7329] | 7.51 |

| Sequence | gcPBM binding intensity (ln) |
| --- | --- |
| TAAAAATGTAGACACACACACATATATATATTTAAT [CACACA_site1528] | 7.06 |
| AAATAATTAGCTATTTGTACATATATACATATTTAT [XGTACX_site4652] | 6.99 |
| TTAATAACAAAATAAACACACATATATAAATCCACA [CACACA_site1590] | 6.97 |
| TGTGTTAAATGTAATAGTGAATAAATAATTTTAACA [TGCATGCA_negctrl_site161] | 6.81 |
| AAAATGAATATAATGACGCACACTTAAAATTGTTAA [CACACA_site2509] | 6.91 |
| TTTTTTAGAAAAAGTTGTACTTTTTTTTTTTTTTTT [XGTACX_site535] | 7.63 |
| AAAAAAAACAGACACACACACAAATATATAAAAATA [CACACA_site1172] | 6.94 |
| TTTTTGAAATAATGAAACAGCAAAAAAACAAAAATA [CACACA_negctrl_site221] | 7.2 |
| TATTAAAAGAAAATAACACACACAAAAAAAAAAAAA [CACACA_site8661] | 6.72 |
| AAAATAAGCGTGAAACGTACATATTACATTATTATA [XGTACX_site8914] | 6.86 |
| ATAATATATATATAGTGTACATTTGAATATATTTGA [XGTACX_site583] | 7.24 |
| TTTTAAAATATCAACACACTCATTATTTTCTATATT [CACACA_site4740] | 6.81 |
| AAAATAAAAACAAAATCACACATTCCAGTTTTTTTT [CACACA_site5356] | 6.76 |
| TCATTCTATCTGTTCACACATACACAAAAAAAAAAA [CACACA_site5141] | 7.53 |
| TATATACATGTGAGAGTGCATATAGACATAAAAAAT | 8.96 |
| AAGGTCATTTTATATTGTACATGAAATTGTTATGTA [XGTACX_site187] | 7.06 |
| TCAATTTGGAACGGTATGCACTAATTTTATATTTTT | 8.19 |
| ATATATTTTGTATGTAGTACAATTTTATAATCATAT [XGTACX_site8373] | 7.07 |
| AATAATGAATACACATGTACAAAAATTTTTCTTACT [XGTACX_site1962] | 7 |
| TATTACAAATATGGCACACATATATATATATATATT [CACACA_site3268] | 7.32 |
| ATATACAGATAAATGTGTACTTAAATCTATTATATT [XGTACX_site2632] | 6.92 |
| CAAATATCTATTTAGTGTACTAATATATTCAATAAT [XGTACX_site2345] | 7.11 |

| Sequence | gcPBM binding intensity (ln) |
| --- | --- |
| TATATAAAACCTTATTGTACTATTAGACTATGCTTA [XGTACX_site6026] | 6.77 |
| ACAAAGACAATTTTGTTATATATAAAAAAAAAAAAT [CACACA_negctrl_site253] | 6.98 |
| ATTAATTTTCCATTCACACATATATATATATATATA [CACACA_site6065] | 9.34 |
| ATAGCATATATTTTTTGTACATATGTTATATATATA [XGTACX_site2184] | 8.25 |
| TACAAATATATATGCACACACATATCTGTATATGTG [CACACA_site5663] | 7.66 |
| ATGTAGATATATATCTGTACGTATATGTAAATATTA [XGTACX_site1516] | 7.14 |
| AATTCTTTTTATATATTAAATATTATTAATAAGTCA [CACACA_negctrl_site1488] | 6.84 |
| ACACATTATAACAAGGTGCAATTTTTATACACATGT [GTGCAC_site9866] | 10.4 |
| GAAAAAAAAAAAAATACACACAAATTGGTATATAAC [CACACA_site6315] | 6.75 |
| GCTATAATAAAATTTAAACACACGTAATATAATATA [CACACA_site2592] | 7.06 |
| AAAATTTCATAAAGACGTACTATAAAAATAAAATTA [XGTACX_site4182] | 7.2 |
| AAAAATTCTTGGCGCACACACTTTAAAAGTTAAAAA [CACACA_site6430] | 7.3 |
| GTATATTTCTTTAAATGTACACATTTTTTTAAAGAG [XGTACX_site1225] | 7.23 |
| AATTGTATAAATGGAATAATGACTATGATTATACAT [GTGCAC_negctrl_site188] | 6.96 |
| TATAAAAAATATCCTTTTTTTATACATCAATATATA [TGCATGCA_negctrl_site291] | 6.76 |
| CACTAATAGTGGATTACACACATATAGATGTATATA [CACACA_site7234] | 6.99 |
| ATTTATAATCTGTATAGTACACATATATACATGGTT [XGTACX_site2714] | 7.08 |
| CTAAAACAATAAATCACACATACATAGGATAATATA [CACACA_site4247] | 6.86 |
| TCTTAAATATACAGTTGTACTAAACAAAAAAAAAAA [XGTACX_site2639] | 7.2 |
| TATAAAAAATGATAAAGTACTTTATACACACAAATA [XGTACX_site8486] | 7.37 |
| AAAATATACACACATATGTATATAATATTATATGTA [GTGCAC_negctrl_site496] | 6.93 |
| CTTTCGGTTGGAGAGGTGCGCTTCTCCTTTATAATA | 11 |

| Sequence | gcPBM binding intensity (ln) |
| --- | --- |
| TGATAGCTAGCTATATGTACATATATATATATATAT [XGTACX_site393] | 9.49 |
| TACACAAAATTTAAATGTACATTAAATATATGATGT [XGTACX_site2140] | 7.04 |
| AAACATCATAAATATACACACATATATATATATATA [CACACA_site620] | 9.54 |
| ATTTATCTATAATATACACACATATAACAGACATAT [CACACA_site6469] | 6.99 |
| AAAACGTATCACAAAAGTACAGATAGTTATAATATA [XGTACX_site185] | 6.97 |
| CGAAACCATATGTACACACACATATATAAATATGTA [CACACA_site7082] | 7.1 |
| TTTATATTTCTCTTTAGTACATATTATATTCTTTTA [XGTACX_site1618] | 7.03 |
| AATGAAAATAAATTAACACACAATTTTAATATTGTT [CACACA_site1306] | 6.67 |
| GTATACTTAACATTCACACATATATATATATATAAA [CACACA_site4596] | 7.37 |
| AATTATTTACCTTCTTTGAAAGAACAAATGATACAA [CACACA_negctrl_site1315] | 6.88 |
| ATATATATATATATATGTACTTATAATTCTTCAATT [XGTACX_site5627] | 9.01 |
| ATATATCAACTCATATTATTTTCTTTTATTATTTAT [CACACA_negctrl_site276] | 6.9 |
| TGTTATTAAAACGTGACACACAATATATATATATAT [CACACA_site3539] | 9.12 |
| TTTTTTTTTTTTTTTTGTACACATAGTAAAAATTAA [XGTACX_site2410] | 7.12 |
| TTTTTTTTTAAGCAAAGGAAATCAAAATAAAAATAT [CACACA_negctrl_site719] | 7.08 |
| TTATAAATTATATATATGACCAATAATTGTGAGCAT [CACACA_negctrl_site725] | 7.27 |
| TTTTTTTTTTATTCTACACACATATGTTTTTATATG [CACACA_site182] | 7.17 |
| TATATATATATATGTTGTACTTTTAATTTAAATGTA [XGTACX_site4239] | 9.63 |
| TGTCGACATGTAGGTAGTACTATTAAAAATAATGAT [XGTACX_site3849] | 7.19 |
| ATAGAAGGACATATAACACACATATATTATAAGTAT [CACACA_site5461] | 7.1 |
| AAATATATATATATAATACACACTAAAGTAACATAA [CACACA_site2870] | 7.1 |
| GGATGATTAAGGGGGACACACGTTTATATATTTATA [CACACA_site4342] | 7.82 |
